Source: publication PMC5836133
This is one part of the list. At the low end of the ranking the order means little.

test system: T1, GST-NbGlk1(82-244); experiment: protein-binding microarray; conditions: NbGlk1 is a Golden2-like transcription factor of Nicotiana benthamiana; high values mean tight binding; most listed sequences are background and not binding sites; double strand, one strand shown;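 also: rank-based score ranging −0.5 to +0.5 with E above 0.45 taken as significant binding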
T1 sequence: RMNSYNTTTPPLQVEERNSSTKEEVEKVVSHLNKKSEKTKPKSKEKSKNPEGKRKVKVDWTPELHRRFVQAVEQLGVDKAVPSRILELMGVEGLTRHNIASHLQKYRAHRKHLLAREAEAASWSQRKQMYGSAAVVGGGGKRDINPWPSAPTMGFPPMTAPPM

Sequence	binding signal [E-score]
ACAACACC	-0.00204
CAGCATTA	0.0293
ACGTTACT	-0.065
AAAGTGTC	-0.000473
ATTTCACC	0.214
AAGAGATG	0.0111
ACTATTGG	-0.151
CACCAATA	0.0686
ATAATCTA	0.334
AACGTTCT	-0.139
AACGGGCT	-0.222
AGCTTCAA	-0.251
ACCTTGCA	-0.0624
AGTCTATA	-0.0952
ACTTAGAT	0.257
ACAGGTAC	-0.0204
ACGGACGC	-0.211
AGGCGGGA	-0.12
CAAAGTAA	0.0718
ACCGGCCT	-0.204
AGAGCGCA	-0.123
ATACAAAG	-0.0425

Sequence	binding signal [E-score]
AGCTTATC	-0.0676
ACGTTGCA	0.0856
ATAACTTA	0.0874
AAGTGCAC	-0.126
AAAAATCT	0.45
AGTCGCCA	-0.299
AGACAAAC	-0.033
AAGACGCG	-0.063
ACGGCTCA	-0.206
AAAGTTCC	-0.0954
ACGGCATC	-0.0334
ATGGAATA	0.111
ATTCCGGG	0.182
ACTATATC	0.142
AACACGTT	-0.194
AAGATAAC	0.0468
AACTATCG	-0.0442
CAACTCTG	-0.0558
ATTAGAGA	0.0726
ACTCGCTC	-0.112
AAAATACG	0.286
ACCGTTAA	0.0829

Sequence	binding signal [E-score]
AAGACCGT	-0.0777
CACCAGAC	-0.194
AGCGACAG	-0.0398
ATTCTGTA	0.271
AAACGTAA	0.0718
ACCCGATG	-0.186
AGATTTGG	0.394
AGGGATAC	0.168
AGGTTGAT	-0.0415
CACCGTCG	-0.212
AGGCACGC	-0.11
ACATTTCA	0.0402
CACCGTAA	0.122
AACAGGGA	-0.155
ATGGTTTA	0.0425
ACGGTAGG	-0.0738
AAGCATCG	-0.0212
CAGCACGA	-0.0353
CACAGAAG	-0.0289
AGATTCAG	0.238
AGAGTTTG	4.26e-06
AATAGCAC	-0.105

Sequence	binding signal [E-score]
AAGCCATG	-0.164
ACCAGCAA	0.0679
ATGGTTCG	-0.0962
ATATGCGC	0.177
ACATACAA	0.181
AGGCAGCG	-0.197
AAAGTCCT	-0.264
AAGCAGAA	0.118
AATCTCCA	0.389
AATTCCAG	0.0413
AATGGCGC	-0.0578
ACGGTCCA	-0.177
ATGCGAAA	0.16
AAGACGTG	-0.0718
AAGGTTCA	-0.0932
CACGCCCG	-0.144
AGGTATGG	-0.149
AGTCCCAA	-0.0799
ACGGATCC	0.198
AGACCTCA	-0.294
